Source: the supplement of paper PMC3334620
The full ranking holds about 33,000 sequences; the median of “E-score (-0.5 to 0.5)” is about -0.04, and the highest 2% start at about 0.36. Some of the results follow.

target: T1, Hmlalpha2 (UniProt P0CY09); experiment: PBM E-score (8-mer binding enrichment) (E-score (-0.5 to 0.5)); higher = stronger / more preferred TF binding; most listed sequences are background and not binding sites; conditions: protein concentration: 200 nM; construct: GST-full length
T1 sequence: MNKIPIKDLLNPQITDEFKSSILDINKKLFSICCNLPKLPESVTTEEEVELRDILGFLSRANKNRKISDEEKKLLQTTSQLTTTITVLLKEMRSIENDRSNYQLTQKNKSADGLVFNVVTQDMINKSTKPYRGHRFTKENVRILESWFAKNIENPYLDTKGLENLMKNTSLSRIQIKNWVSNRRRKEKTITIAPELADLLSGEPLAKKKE
Outline: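 Detection of bound protein used fluorescent anti-GST, with scans normalised by masliner. The proteins were GST-tagged yeast transcription factors applied at about 100-200 nM to universal all-10-mer Agilent arrays made double-stranded by primer extension. Each ungapped eight-base word, pooled with its reverse complement, was scored with an E-score from the Universal PBM Analysis Suite.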

Sequence | PBM E-score
GAAGATAC | -0.0338
AACTAGGA | -0.00347
AGGACAGG | -0.27
CAAAAATG | 0.0505
CCTGACGC | -0.345
AAAGGTTG | -0.227
CAGCTAGA | 0.00712
AACGTTTG | 0.00631
CATAGAAC | -0.138
GTGCTCTA | -0.0403
AGATAACA | 0.351
ATCGTAAG | 0.0715
CCCGCGAA | -0.24
CGTGCATC | -0.116
ACTGCCGC | -0.208
AGTAAAAC | 0.256
GAAGATCC | -0.164
CTTCCAAA | 0.0123
CGGAGCTC | -0.165
CCTTTTAC | 0.187
AACAAATG | 0.169
GGACATAC | -0.0257
ACTTAGAT | 0.132
ATGCAGAC | 0.0549
TCAGGCAA | -0.136

Sequence | PBM E-score
CCCATGAA | -0.163
AGTGATAA | -0.0125
AAAGCAAG | -0.0219
GCTTAAGA | -0.113
AAGATTCG | 0.0306
AGCTAACG | 0.117
CGTTTGCA | 0.11
CAATGCTA | 0.0757
CCGCTCGC | -0.192
AGGCCAAA | -0.118
CAAGGAAC | 0.157
CTGTCGAA | 0.114
GCAGGACA | -0.0748
CTGTTACA | 0.281
CCTCGCTA | -0.2
ATATAAGA | 0.129
AAATAAGA | 0.0456
ACCCGTTA | 0.0329
AAGCGCTG | -0.0761
CTCAAGGA | -0.192
ACCCATAG | -0.346
TCAGCCGA | -0.137
AAGACCTC | -0.258
CCATAGCA | -0.145
CGCCACAC | -0.0598

Sequence | PBM E-score
ACCTCGTA | 0.126
ATAAAACA | 0.264
TAGGGGCA | -0.208
CATACTCA | 0.168
GCTCTTCA | -0.259
CGGATGAA | 0.0601
CTTTAAAC | 0.153
AACCCGGC | 0.0143
AGTCGGGA | -0.192
GACTGCGC | -0.148
ATCCATCG | -0.154
ATGTAGAG | 0.376
CCCTCTAG | -0.185
CAAAATTG | 0.0272
CACAATGA | 0.0518
CAGCAGCA | -0.021
ATCATATG | 0.161
AAGTCTGG | 0.0378
AGTCTGCA | -0.221
GACTCGCA | -0.247
GATAACGA | 0.136
AATGGCGG | -0.388
CTCAAACC | -0.106
ATGCTGCG | -0.126
GTACAGAC | 0.17

Sequence | PBM E-score
ACTAGTTG | -0.0172
CGAGGGAG | -0.302
CCATCTTA | -0.0983
CACAGTAG | -0.062
AATCGGTC | -0.081
CCCTCTGC | -0.31
CCGATACA | 0.0222
AGAGAGCC | -0.275
ATGTTTTA | 0.422
AGCATCTG | -0.0361
TAACCTGA | -0.0203
ACGGACGA | 0.109
TTGATCAA | 0.0657
CCAAGCCC | -0.0716
CAGTAACA | 0.18
GTTGCGGA | 0.0283
ACGAATCC | 0.056
CTTTTATA | 0.0262
TACAACCA | 0.226
AGCTCTCC | -0.127
CCGCAGTC | -0.0169
CCTTACAG | -0.106
TACTTAGA | 0.0639
AGAGGGCC | -0.376
AAATTGGG | -0.0745

Sequence | PBM E-score
ATTCTACA | 0.371
ACCAGGCA | -0.257
CTAACGCC | -0.18
GTGGGATA | -0.113
ATCAGTGG | -0.195
ACATTGGG | -0.0197
AGGGTTAT | 0.0939
GCTATGTA | 0.426
CCATGAGA | -0.194
AATATGGC | -0.059
AGTGCACA | -0.0563
CAAAATGC | 0.0763
AGCCTGTC | -0.0837
CCGAGTTC | 0.0247
TCCGGGCA | -0.0623
ATAGGGCC | -0.247
TCCTAGAA | -0.145
CCTCGATC | -0.275
CGATACGC | 0.0789
GAAACCAA | 0.00698
AAGCGCGC | 0.0629
ACGTGCTG | 0.166
AGTGTTCA | 0.00891
CTGTGCCC | -0.114
GAGGAGAC | -0.314

Sequence | PBM E-score
ACCCGTCC | -0.266
GCCTCCAC | -0.284
AGCTCGTG | -0.014
ACCGATCC | -0.28
CTGCACGA | 0.0626
AAACGTTT | 0.0186
CCTTTAGC | -0.0886
CATACCGC | -0.0255
GCATATGA | -0.00235
AAACAGTA | 0.135
AAGAGTTA | 0.104
AATGGGCG | -0.155
CGAGCCTA | 0.0145
TGGGGGAA | -0.371
AATGGGGA | -0.156
GTCACCAA | -0.167
ACGCGCTG | 0.245
CCACGGTA | -0.0423
GACACAAC | 0.264
AGAGCGCG | -0.0468
CCCTATTA | -0.051
ACAGGGTG | -0.00085
ATCTCAAC | 0.233
CAGGCCAA | -0.177
AGTTAACT | 0.129

Sequence | PBM E-score
CATGTCAA | 0.44
CCAAAGCG | -0.1
ATATTGGG | -0.261
GAATCAGC | -0.129
AATGACCC | -0.282
AATACGCG | 0.399
CCCCTATA | -0.179
TATCATCA | 0.12
CATCGAAA | -0.12
ACTCGATA | 0.163
AATGTCGG | 0.124
CCGTGTCG | 0.233
ACAGAGCC | -0.085
GTCAACTA | 0.1
GGCGTTAA | 0.216
ACAGCGGT | 0.0344
ATCACGGA | -0.189
CTACGTCA | 0.0853
CACGTTAG | 0.113
CACCAATC | -0.188
CTGGCAGA | -0.162
ACGAGTCT | -0.105
